# Laboratory results published in the supplement of paper PMC3334620.
# The full ranking holds about 33,000 sequences; the median of “E-score (-0.5 to 0.5)” is about -0.032, and the highest 2% start at about 0.36. The list shows a part of the results.
# Target: T1, Sko1 (UniProt Q02100)
# T1 sequence: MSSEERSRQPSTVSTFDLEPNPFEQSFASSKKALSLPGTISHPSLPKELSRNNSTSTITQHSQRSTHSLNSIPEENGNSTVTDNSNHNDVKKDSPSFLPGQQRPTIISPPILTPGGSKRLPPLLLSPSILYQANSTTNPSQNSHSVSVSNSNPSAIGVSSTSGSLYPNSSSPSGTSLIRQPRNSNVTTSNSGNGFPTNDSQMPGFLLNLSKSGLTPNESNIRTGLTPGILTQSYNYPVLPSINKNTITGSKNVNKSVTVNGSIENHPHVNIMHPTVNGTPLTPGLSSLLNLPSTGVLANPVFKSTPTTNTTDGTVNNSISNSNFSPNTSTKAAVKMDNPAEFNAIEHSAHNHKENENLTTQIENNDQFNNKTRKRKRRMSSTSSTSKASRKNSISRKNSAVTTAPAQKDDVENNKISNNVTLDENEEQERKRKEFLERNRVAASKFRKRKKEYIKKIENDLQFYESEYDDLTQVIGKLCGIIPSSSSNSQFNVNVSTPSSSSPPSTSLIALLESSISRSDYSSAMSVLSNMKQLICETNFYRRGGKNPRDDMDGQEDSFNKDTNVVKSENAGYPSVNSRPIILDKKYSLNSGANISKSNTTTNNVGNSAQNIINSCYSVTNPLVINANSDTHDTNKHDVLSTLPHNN
# Experiment: PBM E-score (8-mer binding enrichment) (E-score (-0.5 to 0.5)); higher = stronger / more preferred TF binding; most listed sequences are background and not binding sites
# Details: protein concentration: 200 nM; construct: GST-full length
# Procedure: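 Universal 'all 10-mer' protein binding microarrays (Agilent AMADID 015681) probed with GST-tagged S. cerevisiae TFs (full-length or DBD) made by in vitro transcription/translation (PURExpress), about 100-200 nM. Bound TF was detected with fluorescent anti-GST. Each ungapped 8-mer (which stands for itself and its reverse complement) is scored by the PBM enrichment score (E-score), a modified Wilcoxon-Mann-Whitney statistic from -0.5 to +0.5, computed with the Universal PBM Analysis Suite. Scale: above 0.35 generally sequence-specific binding.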
row,Sequence,PBM E-score
1,GAAACTCC,-0.27
2,ATTTCGAA,0.247
3,CTTGTCCC,-0.14
4,GGTGAAAC,-0.0922
5,AGTAAGAC,0.125
6,TCAGATCA,0.0599
7,GTACGAGA,0.2
8,ACATGACC,-0.00624
9,CCGAAGAA,-0.0779
10,ACGAACCC,0.0159
11,TATACTCA,0.192
12,GCTCCTCA,-0.234
13,ATAATTTC,0.299
14,AGTCAGTA,0.0569
15,ATCCTATC,-0.112
16,GTGAGACA,-0.0497
17,GCCAAACC,-0.145
18,ATAGGAAA,0.175
19,AGTCCTTC,-0.375
20,CCCATCCA,-0.314
21,CGATGCCG,-0.36
22,CGAGCGGC,-0.177
23,CAAAGCAA,0.0522
24,ACTCAACC,-0.0414
25,GCCGGCCA,-0.151

row,Sequence,PBM E-score
1,ACCCCAAT,0.125
2,AGTCAGTC,-0.02
3,GAGCTAAC,0.0418
4,AATTCCGG,-0.065
5,AGTTGACA,0.117
6,CCGGCGTC,-0.053
7,ACCGCATA,-0.0432
8,CTCGCGTC,0.151
9,CAATATAC,0.225
10,ACACCGAT,-0.13
11,ACAGACAC,0.0839
12,CCTACATC,-0.0537
13,GCTCATCA,-0.0236
14,ACTATTCT,0.0612
15,CGTGCTTA,0.234
16,GCCATCCC,-0.319
17,AGTGCTAC,-0.0938
18,CCAAGGAC,-0.251
19,CAAGCTGC,-0.161
20,CAATAACA,0.00949
21,AGAATTGC,-0.0272
22,TGAGCAAA,0.133
23,AGAACGCA,0.157
24,TCGATCAA,-0.167
25,TCTGTCAA,0.0208

row,Sequence,PBM E-score
1,CTGTCTGA,-0.221
2,ATGTCCGC,-0.0895
3,GACATCGC,0.107
4,ATAAGGTG,0.232
5,ATGGTCCA,-0.118
6,TCGGACAA,0.0393
7,TTAGATAA,0.156
8,CGTGCATA,0.208
9,GAATTATC,0.251
10,CACAAAAC,0.142
11,CCCCATCC,-0.185
12,CAACAGTC,-0.102
13,CGGTTTCC,-0.214
14,AATCACGA,0.0581
15,CTCGTATC,0.0593
16,AGGTACAT,0.153
17,CCCTAGGA,-0.276
18,CCTTCGCC,-0.326
19,ATGCTCAC,0.0757
20,ATTCGCGG,0.1
21,ACATCTCC,-0.119
22,AAGTCTAA,-0.0065
23,TAGGTAAA,0.169
24,CGGGTCGC,-0.0711
25,TGTAGAAA,0.172

row,Sequence,PBM E-score
1,TCTCATAA,0.0934
2,CAATTTAG,0.146
3,AGCTTCCC,-0.292
4,AACCACTT,-0.0113
5,TGCTACAA,0.131
6,AACCTGGA,-0.0976
7,CCCCTCAG,-0.356
8,CATACAAC,0.059
9,CCGGATTC,-0.0976
10,CTCCTACA,-0.0534
11,CTTAATGC,0.0192
12,AAACGGTG,-0.1
13,AAACAATT,0.0401
14,TACGCCCA,0.0657
15,CGGTATAG,-0.236
16,CATCCTTC,0.0809
17,AGGGGAGC,-0.294
18,CACCGGAG,-0.353
19,ACAAACCC,-0.0873
20,AACAATAT,0.32
21,GGACGGCC,-0.331
22,CTAATTAA,0.202
23,CAGCTCGA,-0.226
24,AGTCGCCG,-0.197
25,AAGTTGTC,0.0291

row,Sequence,PBM E-score
1,GAAATCAC,0.282
2,AAAATTCT,0.0451
3,CGGGGATC,-0.387
4,CTGTTCCC,-0.269
5,AGTACACG,0.188
6,GACGCGTA,0.388
7,AGAAACGG,-0.00978
8,GCTGATTA,0.159
9,CATACTAC,0.052
10,GGTAACAA,0.247
11,TACCTGCA,-0.122
12,ACCCCGCT,-0.233
13,CACTCGGA,0.0666
14,GAGAAAGC,-0.048
15,CCAGTTGA,-0.0364
16,GATAGATC,0.0469
17,ACTCCTGA,-0.0495
18,AACCACGT,0.371
19,AATCATAA,0.213
20,ATGTGGTC,-0.0418
21,TAAGTGCA,0.104
22,AGACACTA,-0.127
23,GATAGGGA,-0.127
24,ACCCAAAT,0.0772
25,CCGCTACC,-0.239

row,Sequence,PBM E-score
1,ATTCCAAG,0.0791
2,GGATGCTA,-0.0518
3,ATGTCCCA,-0.233
4,GGAGCGAC,-0.083
5,CGTTGGGC,0.0143
6,GAACTCTA,-0.0173
7,AGGCTGAT,-0.142
8,GCTCCCCC,-0.322
9,CCAAAAAA,0.167
10,ACCACATA,0.183
11,CATACGTA,0.485
12,GTGATCTA,0.127
13,ACGCATCG,0.152
14,GAACGTAC,0.254
15,ATAACTCA,0.0469
16,CTCTTTAA,0.0552
17,TCAATTAA,0.192
18,ACTCTTGA,-0.0757
19,GGGCATAA,-0.0902
20,AGGGTAAG,-0.0789
21,TAAACGCA,0.304
22,AGATGAAT,-0.0403
23,CCGGACTA,-0.0654
24,TCCCACGA,-0.0092
25,GCTAGGTA,-0.148

row,Sequence,PBM E-score
1,AGGCTTAC,-0.0829
2,AAAAACGT,0.337
3,CGGCATAC,-0.00615
4,AAGTTGTG,0.0912
5,CACACGAC,0.254
6,ATTACACG,0.221
7,AACAAATA,0.173
8,GAACTTCA,-0.0971
9,GGTGTCAA,-0.0467
10,AGTGCCGA,-0.148
11,GAGATAGC,-0.015
12,CCCGCTAG,-0.175
13,CAGAGTTC,-0.104
14,GCTAAAAC,-0.0111
15,CGCCTCAC,-0.0959
16,AGGACGGG,-0.367
17,TAGCGTAA,0.341
18,CTAGCCTA,-0.22
19,CGCCCTTC,-0.17
20,CCTGACGA,0.24
21,GGTACAAC,-0.0836
22,CTCTGCGC,-0.124
23,AGTATTGC,0.0312
24,CCAGGCAC,-0.156
25,CCCTCTCG,-0.408

row,Sequence,PBM E-score
1,GAATTTCA,0.0843
2,CTCATTGC,0.0918
3,ATTAGATA,0.236
4,AGCCTCCA,-0.207
5,CAACCAAC,-0.0623
6,TTCGGAAA,-0.102
7,GGGTCAAC,-0.136
8,TGAGGGCA,-0.146
9,GGGTTCGA,-0.277
10,ACATCTAC,0.161
11,TCCTACCA,-0.286
12,ATTCCTTG,-0.124
13,GCAGTTAA,0.0467
14,GAAGGAAA,-0.121
15,AATATCCC,-0.0915
16,ATTAGGGC,-0.205
17,ATTGAACC,-0.0368
18,CAAATGCG,0.0688
19,AACGTCAG,0.429
20,CATCGTTC,0.021
21,AGCCGCAC,-0.204
22,AACGCTGT,0.0693
23,GATCCAGC,-0.217
24,ATTCTGGC,-0.0861
25,AAAGAAAC,0.166

row,Sequence,PBM E-score
1,AAAAATCC,-0.162
2,ATGAGCAC,-0.00798
3,ACGTGAAG,0.326
4,CAGCGAGA,-0.214
5,CCACGTAC,0.374
6,AGCTATAA,0.0209
7,CGGGGAAG,-0.139
8,ATCGTTCA,0.0814
9,AGATATAA,0.149
10,CTTTTTCA,-0.103
11,CCAAGACC,-0.323
12,CTAAAGAC,0.00796
13,CCCTAAGA,-0.197
14,ACTGATTG,-0.022
15,AGGGAACG,-0.157
16,AACCTATT,-0.0142
17,ACCTGGCG,-0.109
18,TCAGTGAA,-0.0739
19,ATCCACCC,-0.197
